# Test results as given in the supplement of paper PMC12217912.
# This is one part of the list. Sequences were assembled here from the parent chain. Inactive controls read about 0.05.
# B1: TEV protease; numbered along this chain (parent)
# chain: MGESLFKGPRDYNPISSSICHLTNESDGHTTSLYGIGFGPFIITNKHLFRRNNGTLVVQSLHGVFKVKDTTTLQQHLVDGRDMIIIRMPKDFPPFPQKLKFREPQREERICLVTTNFQTKSMSSMVSDTSCTFPSGDGIFWKHWIQTKDGQCGSPLVSTRDGFIVGIHSASNFTNTNNYFTSVPKNFMELLTNQEAQQWVSGWRLNADSVLWGGHKVFMVKPEEPFQPVKEATQL
# Variants of: B1
# Assay: raw area under fraction-flipped curve 0-4 h after induction (AUC4h, not background-subtracted), DNA-recorder readout of cleavage of the substrate (dimensionless); higher = more cleavage of the substrate by the protease variant
# Settings: temperature: 34 °C; time window: 0-4 h after rhamnose induction
# Experimental: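 In vivo DNA recorder in E. coli TOP10(DE3) ΔrhaA at 34 °C. Each TEVp single-site mutant (parent TEVp 0) is paired with a single-site variant of the 7-mer TEVs (canonical ENLYFQ|S). The substrate sits between flexible linkers in a Bxb1-sfGFP-TEVs-SsrA fusion, so cleavage stabilises Bxb1 and speeds flipping of a recombination array, read by NGS. The value is the raw area under the fraction-flipped curve over 0-4 h after rhamnose induction (AUC4h), with ≥20 reads per time point. It is not background-subtracted; inactive controls average about 0.047.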
# 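Note: Bxb1 expression induced with 0.2% (w/v) L-rhamnose at OD600 near 0.5, cultures sampled hourly, flipped fraction per protease–substrate barcode pair counted by paired-end Illumina sequencing.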
Variant,area with substrate ENLYFAS,area with substrate ENLYFCS,area with substrate ENLYFDS,area with substrate ENLYFES,area with substrate ENLYFFS,area with substrate ENLYFIS,area with substrate ENLYFLS,area with substrate ENLYFMS,area with substrate ENLYFNS,area with substrate ENLYFPS,area with substrate ENLYFRS,area with substrate ENLYFTS,area with substrate ENLYFVS,area with substrate ENLYFWS,area with substrate ENLYFYS,area with substrate ENLYFHS,area with substrate ENLYFSS,area with substrate ENLYFGS,area with substrate ENLYFKS
MGESLFKGPNDYNPISSSICHLTNESDGHTTSLYGIGFGPFIITNKHLFRRNNGTLVVQSLHGVFKVKDTTTLQQHLVDGRDMIIIRMPKDFPPFPQKLKFREPQREERICLVTTNFQTKSMSSMVSDTSCTFPSGDGIFWKHWIQTKDGQCGSPLVSTRDGFIVGIHSASNFTNTNNYFTSVPKNFMELLTNQEAQQWVSGWRLNADSVLWGGHKVFMVKPEEPFQPVKEATQL [R10N],0.0547,0.0483,0.0631,0.0571,0.116,0.0606,0.0666,0.0506,0.0672,0.0571,0.0757,0.037,0.063,0.101,0.0493,–,–,–,–
MGESLFKGPRMYNPISSSICHLTNESDGHTTSLYGIGFGPFIITNKHLFRRNNGTLVVQSLHGVFKVKDTTTLQQHLVDGRDMIIIRMPKDFPPFPQKLKFREPQREERICLVTTNFQTKSMSSMVSDTSCTFPSGDGIFWKHWIQTKDGQCGSPLVSTRDGFIVGIHSASNFTNTNNYFTSVPKNFMELLTNQEAQQWVSGWRLNADSVLWGGHKVFMVKPEEPFQPVKEATQL [D11M],0.0596,–,0.0592,0.0718,0.0666,0.0612,0.0605,0.0549,0.0545,0.0615,–,0.0579,0.0665,0.0635,0.0585,0.066,0.0637,–,–
MGESLFKGPRDYNPIWSSICHLTNESDGHTTSLYGIGFGPFIITNKHLFRRNNGTLVVQSLHGVFKVKDTTTLQQHLVDGRDMIIIRMPKDFPPFPQKLKFREPQREERICLVTTNFQTKSMSSMVSDTSCTFPSGDGIFWKHWIQTKDGQCGSPLVSTRDGFIVGIHSASNFTNTNNYFTSVPKNFMELLTNQEAQQWVSGWRLNADSVLWGGHKVFMVKPEEPFQPVKEATQL [S16W],0.053,0.0644,–,0.0593,0.0667,0.057,–,0.0596,–,0.0491,0.0693,0.052,0.0606,0.0477,–,0.0526,0.0484,0.0574,0.0777
MGESLFKGPRDYNPISESICHLTNESDGHTTSLYGIGFGPFIITNKHLFRRNNGTLVVQSLHGVFKVKDTTTLQQHLVDGRDMIIIRMPKDFPPFPQKLKFREPQREERICLVTTNFQTKSMSSMVSDTSCTFPSGDGIFWKHWIQTKDGQCGSPLVSTRDGFIVGIHSASNFTNTNNYFTSVPKNFMELLTNQEAQQWVSGWRLNADSVLWGGHKVFMVKPEEPFQPVKEATQL [S17E],0.0651,0.0629,0.0667,0.0739,0.0688,0.058,0.0599,0.0713,0.0599,0.051,0.0576,0.0591,0.0163,0.0548,0.0508,0.0584,–,–,0.0765
MGESLFKGPRDYNPISMSICHLTNESDGHTTSLYGIGFGPFIITNKHLFRRNNGTLVVQSLHGVFKVKDTTTLQQHLVDGRDMIIIRMPKDFPPFPQKLKFREPQREERICLVTTNFQTKSMSSMVSDTSCTFPSGDGIFWKHWIQTKDGQCGSPLVSTRDGFIVGIHSASNFTNTNNYFTSVPKNFMELLTNQEAQQWVSGWRLNADSVLWGGHKVFMVKPEEPFQPVKEATQL [S17M],0.07,–,0.0649,0.0631,0.0649,0.0454,0.065,0.0643,0.063,0.0609,0.0559,0.0526,0.0581,0.0644,0.0606,–,0.0519,–,0.0659
MGESLFKGPRDYNPISLSICHLTNESDGHTTSLYGIGFGPFIITNKHLFRRNNGTLVVQSLHGVFKVKDTTTLQQHLVDGRDMIIIRMPKDFPPFPQKLKFREPQREERICLVTTNFQTKSMSSMVSDTSCTFPSGDGIFWKHWIQTKDGQCGSPLVSTRDGFIVGIHSASNFTNTNNYFTSVPKNFMELLTNQEAQQWVSGWRLNADSVLWGGHKVFMVKPEEPFQPVKEATQL [S17L],0.0622,0.0589,–,0.0574,0.0616,0.0487,0.0505,0.0891,0.0624,0.0621,0.0606,0.0533,0.0573,0.0563,–,0.0624,0.0595,0.0717,–
MGESLFKGPRDYNPISHSICHLTNESDGHTTSLYGIGFGPFIITNKHLFRRNNGTLVVQSLHGVFKVKDTTTLQQHLVDGRDMIIIRMPKDFPPFPQKLKFREPQREERICLVTTNFQTKSMSSMVSDTSCTFPSGDGIFWKHWIQTKDGQCGSPLVSTRDGFIVGIHSASNFTNTNNYFTSVPKNFMELLTNQEAQQWVSGWRLNADSVLWGGHKVFMVKPEEPFQPVKEATQL [S17H],0.0522,0.0655,0.0436,0.0591,0.0725,0.0625,–,0.0845,0.0635,0.0547,0.0562,0.0474,–,–,0.0451,0.0541,0.0737,0.0622,0.0594
MGESLFKGPRDYNPISKSICHLTNESDGHTTSLYGIGFGPFIITNKHLFRRNNGTLVVQSLHGVFKVKDTTTLQQHLVDGRDMIIIRMPKDFPPFPQKLKFREPQREERICLVTTNFQTKSMSSMVSDTSCTFPSGDGIFWKHWIQTKDGQCGSPLVSTRDGFIVGIHSASNFTNTNNYFTSVPKNFMELLTNQEAQQWVSGWRLNADSVLWGGHKVFMVKPEEPFQPVKEATQL [S17K],0.0535,0.0621,0.0421,0.0633,0.0674,0.0539,–,0.0725,0.0697,0.065,0.0656,0.0677,0.0568,0.0402,0.0589,0.0485,0.0429,0.0483,–
